{
  "source": "the supplement of paper PMC12645437",
  "about": "“Orthogonal IMiD-Degron Pairs Induce Selective Protein Degradation in Cells” (ACS Chemical Biology, 2025)",
  "note": "This is one part of the list.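 Further: jurkat cells carrying a lentiviral library of mutant zinc finger degrons fused to EGFP plus mCherry, mCherry+ cells FACS sorted, degron abundance counted by next-generation sequencing.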",
  "data": [
    {"target": "no compound (DMSO)", "assay": "log2 fold change of degron read counts, EGFP-low vs EGFP+ sorted cells; higher = lower degron-EGFP level without compound (poor expression or instability)", "conditions": "compound: DMSO control; 18 h", "values": [
      {"sequence": "FYCEICGADFTQKGNLLRHIKL", "log2 fold change of degron read counts": -1.55},
      {"sequence": "FACEICGHVFTQKGNLLRHIKL", "log2 fold change of degron read counts": -0.647},
      {"sequence": "FECNQCGHEFTQKGNLLRHIKL", "log2 fold change of degron read counts": -0.771},
      {"sequence": "FVCNQCGHCFTQKGNLLRHIKL", "log2 fold change of degron read counts": -0.545},
      {"sequence": "FYCEVCGAMFTQKGNLLRHIKL", "log2 fold change of degron read counts": -0.413},
      {"sequence": "FSCNQCGRPFTQKGNLLRHIKL", "log2 fold change of degron read counts": -0.133},
      {"sequence": "FKCEICGAAFTQKGNLLRHIKL", "log2 fold change of degron read counts": -1.68},
      {"sequence": "FKCNVCGAQFTQKGNLLRHIKL", "log2 fold change of degron read counts": -0.99},
      {"sequence": "LCCPICGFECTQKGNLLRHIKL", "log2 fold change of degron read counts": 0.136},
      {"sequence": "FKCPICGRTFTQKGNLLRHIKL", "log2 fold change of degron read counts": -1.11},
      {"sequence": "LSCPICGFFCTQKGNLLRHIKL", "log2 fold change of degron read counts": 1.41},
      {"sequence": "FRCSVCGHMFTQKGNLLRHIKL", "log2 fold change of degron read counts": 0.142},
      {"sequence": "FDCDVCGAKFTQKGNLLRHIKL", "log2 fold change of degron read counts": -2.32},
      {"sequence": "FFCNQCGRFFTQKGNLLRHIKL", "log2 fold change of degron read counts": 1.64},
      {"sequence": "FWCPVCGAHFTQKGNLLRHIKL", "log2 fold change of degron read counts": 1.18},
      {"sequence": "FTCEICGATFTQKGNLLRHIKL", "log2 fold change of degron read counts": -2.54},
      {"sequence": "FVCDICGAAFTQKGNLLRHIKL", "log2 fold change of degron read counts": -1.55},
      {"sequence": "FVCEQCGAAFTQKGNLLRHIKL", "log2 fold change of degron read counts": -2.32},
      {"sequence": "FQCEVCGAVFTQKGNLLRHIKL", "log2 fold change of degron read counts": -1.19},
      {"sequence": "FICPQCGARFTQKGNLLRHIKL", "log2 fold change of degron read counts": -0.249},
      {"sequence": "FHCEICGHPFTQKGNLLRHIKL", "log2 fold change of degron read counts": -0.000725},
      {"sequence": "FECSVCGHHFTQKGNLLRHIKL", "log2 fold change of degron read counts": -0.879},
      {"sequence": "FACPICGAGFTQKGNLLRHIKL", "log2 fold change of degron read counts": -0.0546},
      {"sequence": "FACNQCGHTFTQKGNLLRHIKL", "log2 fold change of degron read counts": -1.41},
      {"sequence": "FHCPICGAQFTQKGNLLRHIKL", "log2 fold change of degron read counts": -0.0161},
      {"sequence": "FGCPICGACFTQKGNLLRHIKL", "log2 fold change of degron read counts": 0.0742},
      {"sequence": "FACPICGHMFTQKGNLLRHIKL", "log2 fold change of degron read counts": 0.106},
      {"sequence": "FNCPICGAPFTQKGNLLRHIKL", "log2 fold change of degron read counts": 0.495},
      {"sequence": "FDCDICGAKFTQKGNLLRHIKL", "log2 fold change of degron read counts": -1.62},
      {"sequence": "FSCNICGAPFTQKGNLLRHIKL", "log2 fold change of degron read counts": 0.398},
      {"sequence": "FKCPICGANFTQKGNLLRHIKL", "log2 fold change of degron read counts": -0.109},
      {"sequence": "FNCNQCGAVFTQKGNLLRHIKL", "log2 fold change of degron read counts": -0.445},
      {"sequence": "LVCEICGFGCTQKGNLLRHIKL", "log2 fold change of degron read counts": 0.0516},
      {"sequence": "FLCPICGREFTQKGNLLRHIKL", "log2 fold change of degron read counts": -0.134},
      {"sequence": "LSCNQCGFKCTQKGNLLRHIKL", "log2 fold change of degron read counts": 0.205},
      {"sequence": "FTCNQCGRFFTQKGNLLRHIKL", "log2 fold change of degron read counts": -0.107},
      {"sequence": "FECEVCGAGFTQKGNLLRHIKL", "log2 fold change of degron read counts": -2.2},
      {"sequence": "FFCPVCGAPFTQKGNLLRHIKL", "log2 fold change of degron read counts": 0.491},
      {"sequence": "FLCEQCGAMFTQKGNLLRHIKL", "log2 fold change of degron read counts": -1.3},
      {"sequence": "FTCPQCGAKFTQKGNLLRHIKL", "log2 fold change of degron read counts": -1.41},
      {"sequence": "FQCPICGHPFTQKGNLLRHIKL", "log2 fold change of degron read counts": 0.261},
      {"sequence": "FACNQCGACFTQKGNLLRHIKL", "log2 fold change of degron read counts": -0.887},
      {"sequence": "FTCPICGRLFTQKGNLLRHIKL", "log2 fold change of degron read counts": -0.317},
      {"sequence": "FFCPVCGAYFTQKGNLLRHIKL", "log2 fold change of degron read counts": 1.39},
      {"sequence": "FSCPICGHMFTQKGNLLRHIKL", "log2 fold change of degron read counts": 0.00181},
      {"sequence": "FVCEQCGADFTQKGNLLRHIKL", "log2 fold change of degron read counts": -3.17},
      {"sequence": "FVCPQCGAEFTQKGNLLRHIKL", "log2 fold change of degron read counts": -3.33},
      {"sequence": "FMCDVCGAQFTQKGNLLRHIKL", "log2 fold change of degron read counts": -1.17},
      {"sequence": "FHCEVCGALFTQKGNLLRHIKL", "log2 fold change of degron read counts": -1.49},
      {"sequence": "FWCNICGAHFTQKGNLLRHIKL", "log2 fold change of degron read counts": 1.01}
    ]}
  ]
}
